{
  "source": "the supplement of paper PMC8728848",
  "binders": {"B1": {"name": "Nc3LysM (protein)", "chain": "QFTVPPDTTAEPNTIKTCTWWHVAGSGDSCTSIASTYGITSEQFARWDMETTDSPKNPSVATACKLTVGNSYCIENNFGQDDPPTPSISSSTLIGTATTSTTASTTTGNGISTPTPIQEGMETATTTTSSGNGITTPTPTQAGMETVGNCDRFHLVKSGDQCGTIASTYGITLANFYSWNPAVGTSCQSLWLDTYVCVRTIGFVPPKTTTTTTKKPTSTTSAGGVATPTPTQPGMETVSGCKKFHKGRGNVSTVASGDQCGTIATRYGISLANFYSWNPAVGSSCQTLWLDYYVCVGR"}},
  "experiment_in_all_cases": "glycan array binding signal (z-score within array); higher = stronger binding",
  "settings_in_all_cases": "glycan notation: IUPAC condensed, linker removed",
  "key": {"[1]": {"molecular_target": "Gal(b1-3)GlcNAc(b1-3)Gal(b1-4)GlcNAc(b1-2)[Gal(b1-3)GlcNAc(b1-3)Gal(b1-4)GlcNAc(b1-6)]Man(a1-6)[Gal(b1-3)GlcNAc(b1-3)Gal(b1-4)GlcNAc(b1-2)Man(a1-3)]Man(b1-4)GlcNAc(b1-4)[Fuc(a1-6)]GlcNAc", "method_in_brief": "(§1)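 The binding signal is a Z-score computed within each array and averaged over linkers. Arrays of the same protein sequence at different concentrations or buffers were also averaged together. Data originate from 3228 arrays in the Consortium for Functional Glycomics database, kept only where the protein sequence was available.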"}, "[2]": {"molecular_target": "Gal(b1-3)GlcNAc(b1-3)Gal(b1-4)GlcNAc(b1-3)Gal(b1-4)GlcNAc(b1-2)[Gal(b1-3)GlcNAc(b1-3)Gal(b1-4)GlcNAc(b1-3)Gal(b1-4)GlcNAc(b1-6)]Man(a1-6)[Gal(b1-3)GlcNAc(b1-3)Gal(b1-4)GlcNAc(b1-3)Gal(b1-4)GlcNAc(b1-2)Man(a1-3)]Man(b1-4)GlcNAc(b1-4)[Fuc(a1-6)]GlcNAc", "method_in_brief": "as §1"}, "[3]": {"molecular_target": "Gal(b1-3)GlcNAc(b1-3)Gal(b1-4)GlcNAc(b1-6)[Gal(b1-3)GlcNAc(b1-3)]Gal(b1-4)Glc", "method_in_brief": "as §1"}, "[4]": {"molecular_target": "Gal(b1-3)GlcNAc(b1-3)Gal(b1-4)[Fuc(a1-3)]GlcNAc", "method_in_brief": "as §1"}, "[5]": {"molecular_target": "Gal(b1-3)GlcNAc(b1-3)Gal(b1-4)[Fuc(a1-3)]GlcNAc(b1-6)[Gal(b1-3)GlcNAc(b1-3)]Gal(b1-4)Glc", "method_in_brief": "as §1"}, "[6]": {"molecular_target": "Gal(b1-3)GlcNAc(b1-3)GalNAc", "method_in_brief": "as §1"}, "[7]": {"molecular_target": "Gal(b1-3)GlcNAc(b1-6)Gal(b1-4)GlcNAc", "method_in_brief": "as §1"}, "[8]": {"molecular_target": "Gal(b1-3)GlcNAc(b1-6)GalNAc", "method_in_brief": "as §1"}, "[9]": {"molecular_target": "Gal(b1-3)GlcNAc(b1-6)[Gal(b1-3)]GalNAc", "method_in_brief": "as §1"}, "Gal(b1-3)GlcNAc6S": {"molecular_target": "Gal(b1-3)GlcNAc6S", "method_in_brief": "as §1"}, "[10]": {"molecular_target": "Gal(b1-3)[Fuc(a1-4)]GlcNAc", "method_in_brief": "as §1"}, "[11]": {"molecular_target": "Gal(b1-3)[Fuc(a1-4)]GlcNAc(b1-2)Man", "method_in_brief": "as §1"}, "[12]": {"molecular_target": "Gal(b1-3)[Fuc(a1-4)]GlcNAc(b1-2)Man(a1-3)[Gal(b1-3)[Fuc(a1-4)]GlcNAc(b1-2)Man(a1-6)]Man(b1-4)GlcNAc(b1-4)[Fuc(a1-6)]GlcNAc", "method_in_brief": "as §1"}, "[13]": {"molecular_target": "Gal(b1-3)[Fuc(a1-4)]GlcNAc(b1-3)Gal(b1-3)[Fuc(a1-4)]GlcNAc", "method_in_brief": "as §1"}, "[14]": {"molecular_target": "Gal(b1-3)[Fuc(a1-4)]GlcNAc(b1-3)Gal(b1-4)[Fuc(a1-3)]GlcNAc", "method_in_brief": "as §1"}, "[15]": {"molecular_target": "Gal(b1-3)[Fuc(a1-4)]GlcNAc(b1-6)GalNAc", "method_in_brief": "as §1"}, "[16]": {"molecular_target": "Gal(b1-3)[GlcNAc(b1-6)]GalNAc", "method_in_brief": "as §1"}, "[17]": {"molecular_target": "Gal(b1-3)[Neu5Ac(a2-6)]GalNAc", "method_in_brief": "as §1"}, "[18]": {"molecular_target": "Gal(b1-3)[Neu5Ac(a2-6)]GlcNAc(b1-4)Gal(b1-4)Glc", "method_in_brief": "as §1"}, "[19]": {"molecular_target": "Gal(b1-3)[Neu5Ac(b2-6)]GalNAc", "method_in_brief": "as §1"}, "Gal(b1-4)Gal": {"molecular_target": "Gal(b1-4)Gal", "method_in_brief": "as §1"}, "[20]": {"molecular_target": "Gal(b1-4)GalNAc(a1-3)[Fuc(a1-2)]Gal(b1-4)GlcNAc", "method_in_brief": "as §1"}, "[21]": {"molecular_target": "Gal(b1-4)GalNAc(b1-3)[Fuc(a1-2)]Gal(b1-4)GlcNAc", "method_in_brief": "as §1"}, "Gal(b1-4)Glc": {"molecular_target": "Gal(b1-4)Glc", "method_in_brief": "as §1"}, "Gal(b1-4)Glc6S": {"molecular_target": "Gal(b1-4)Glc6S", "method_in_brief": "as §1"}, "Gal(b1-4)GlcNAc": {"molecular_target": "Gal(b1-4)GlcNAc", "method_in_brief": "as §1"}, "[22]": {"molecular_target": "Gal(b1-4)GlcNAc(a1-6)Gal(b1-4)GlcNAc", "method_in_brief": "as §1"}, "Gal(b1-4)GlcNAc(b1-2)Man": {"molecular_target": "Gal(b1-4)GlcNAc(b1-2)Man", "method_in_brief": "as §1"}, "[23]": {"molecular_target": "Gal(b1-4)GlcNAc(b1-2)Man(a1-3)Man(b1-4)GlcNAc(b1-4)GlcNAc", "method_in_brief": "as §1"}, "[24]": {"molecular_target": "Gal(b1-4)GlcNAc(b1-2)Man(a1-3)[Gal(b1-4)GlcNAc(b1-2)Man(a1-6)]Man(b1-4)GlcNAc(b1-4)GlcNAc", "method_in_brief": "as §1"}, "[25]": {"molecular_target": "Gal(b1-4)GlcNAc(b1-2)Man(a1-3)[Gal(b1-4)GlcNAc(b1-2)Man(a1-6)]Man(b1-4)GlcNAc(b1-4)[Fuc(a1-6)]GlcNAc", "method_in_brief": "as §1"}, "[26]": {"molecular_target": "Gal(b1-4)GlcNAc(b1-2)Man(a1-3)[Gal(b1-4)GlcNAc(b1-2)Man(a1-6)][Gal(b1-4)GlcNAc(b1-4)]Man(b1-4)GlcNAc(b1-4)[Fuc(a1-6)]GlcNAc", "method_in_brief": "as §1"}, "[27]": {"molecular_target": "Gal(b1-4)GlcNAc(b1-2)Man(a1-3)[Gal(b1-4)GlcNAc(b1-2)Man(a1-6)][GlcNAc(b1-4)]Man(b1-4)GlcNAc(b1-4)[Fuc(a1-6)]GlcNAc", "method_in_brief": "as §1"}, "[28]": {"molecular_target": "Gal(b1-4)GlcNAc(b1-2)Man(a1-3)[GlcNAc(b1-2)Man(a1-6)]Man(b1-4)GlcNAc(b1-4)GlcNAc", "method_in_brief": "as §1"}, "[29]": {"molecular_target": "Gal(b1-4)GlcNAc(b1-2)Man(a1-3)[GlcNAc(b1-4)][Gal(b1-4)GlcNAc(b1-2)Man(a1-6)]Man(b1-4)GlcNAc(b1-4)GlcNAc", "method_in_brief": "as §1"}, "[30]": {"molecular_target": "Gal(b1-4)GlcNAc(b1-2)Man(a1-3)[Man(a1-6)]Man(b1-4)GlcNAc(b1-4)GlcNAc", "method_in_brief": "as §1"}, "[31]": {"molecular_target": "Gal(b1-4)GlcNAc(b1-2)Man(a1-6)Man(b1-4)GlcNAc(b1-4)GlcNAc", "method_in_brief": "as §1"}, "[32]": {"molecular_target": "Gal(b1-4)GlcNAc(b1-2)Man(a1-6)[GlcNAc(b1-2)Man(a1-3)]Man(b1-4)GlcNAc(b1-4)GlcNAc", "method_in_brief": "as §1"}},
  "note": "This is one part of the list.",
  "data": [
    {"binder": "B1", "values": [
      {"measurement": "glycan array binding signal (z-score)", "setting": "[1]", "result": 0.304},
      {"measurement": "glycan array binding signal (z-score)", "setting": "[2]", "result": 0.175},
      {"measurement": "glycan array binding signal (z-score)", "setting": "[3]", "result": -0.063},
      {"measurement": "glycan array binding signal (z-score)", "setting": "[4]", "result": -0.169},
      {"measurement": "glycan array binding signal (z-score)", "setting": "[5]", "result": -0.082},
      {"measurement": "glycan array binding signal (z-score)", "setting": "[6]", "result": -0.042},
      {"measurement": "glycan array binding signal (z-score)", "setting": "[7]", "result": -0.053},
      {"measurement": "glycan array binding signal (z-score)", "setting": "[8]", "result": -0.07},
      {"measurement": "glycan array binding signal (z-score)", "setting": "[9]", "result": -0.086},
      {"measurement": "glycan array binding signal (z-score)", "setting": "Gal(b1-3)GlcNAc6S", "result": 0.277},
      {"measurement": "glycan array binding signal (z-score)", "setting": "[10]", "result": 0.22},
      {"measurement": "glycan array binding signal (z-score)", "setting": "[11]", "result": -0.135},
      {"measurement": "glycan array binding signal (z-score)", "setting": "[12]", "result": 0.044},
      {"measurement": "glycan array binding signal (z-score)", "setting": "[13]", "result": -0.176},
      {"measurement": "glycan array binding signal (z-score)", "setting": "[14]", "result": 0.21},
      {"measurement": "glycan array binding signal (z-score)", "setting": "[15]", "result": -0.012},
      {"measurement": "glycan array binding signal (z-score)", "setting": "[16]", "result": -0.163},
      {"measurement": "glycan array binding signal (z-score)", "setting": "[17]", "result": 0.008},
      {"measurement": "glycan array binding signal (z-score)", "setting": "[18]", "result": 0.035},
      {"measurement": "glycan array binding signal (z-score)", "setting": "[19]", "result": 0.011},
      {"measurement": "glycan array binding signal (z-score)", "setting": "Gal(b1-4)Gal", "result": -0.055},
      {"measurement": "glycan array binding signal (z-score)", "setting": "[20]", "result": 0.03},
      {"measurement": "glycan array binding signal (z-score)", "setting": "[21]", "result": -0.236},
      {"measurement": "glycan array binding signal (z-score)", "setting": "Gal(b1-4)Glc", "result": -0.013},
      {"measurement": "glycan array binding signal (z-score)", "setting": "Gal(b1-4)Glc6S", "result": -0.198},
      {"measurement": "glycan array binding signal (z-score)", "setting": "Gal(b1-4)GlcNAc", "result": 0.015},
      {"measurement": "glycan array binding signal (z-score)", "setting": "[22]", "result": -0.115},
      {"measurement": "glycan array binding signal (z-score)", "setting": "Gal(b1-4)GlcNAc(b1-2)Man", "result": 0.227},
      {"measurement": "glycan array binding signal (z-score)", "setting": "[23]", "result": -0.159},
      {"measurement": "glycan array binding signal (z-score)", "setting": "[24]", "result": -0.007},
      {"measurement": "glycan array binding signal (z-score)", "setting": "[25]", "result": -0.048},
      {"measurement": "glycan array binding signal (z-score)", "setting": "[26]", "result": -0.28},
      {"measurement": "glycan array binding signal (z-score)", "setting": "[27]", "result": 0.071},
      {"measurement": "glycan array binding signal (z-score)", "setting": "[28]", "result": -0.02},
      {"measurement": "glycan array binding signal (z-score)", "setting": "[29]", "result": -0.185},
      {"measurement": "glycan array binding signal (z-score)", "setting": "[30]", "result": 0.019},
      {"measurement": "glycan array binding signal (z-score)", "setting": "[31]", "result": -0.04},
      {"measurement": "glycan array binding signal (z-score)", "setting": "[32]", "result": -0.077}
    ]}
  ]
}
